Laboratory results published in PubChem BioAssay AID1345082 (National Center for Advancing Translational Sciences (NCATS), 2018).
The whole screen tested about 94,000 compounds, of which about 4,000 (4.3%) were called active. The inconclusive results got no clear call from the source; some entries with a clear call stand among them for comparison. The call rests on the fitted dose curve; in most records, active means well fitted inhibition curve with a large enough effect; inconclusive means small, poorly fitted or top-dose-only effect; inactive means no such curve, though single readings can be large or run the other way. Potencies beside an inconclusive call are fits to weak or partial responses and may not hold up.

Assay: Cytotoxic Profiling in NIH 3T3 Cell Line of Diverse Libraries Using Quantitative High-Throughput Screening; further: nearly all actives have a fitted effect of over 55% in size
Conditions: NIH 3T3 viability, CellTiter-Glo ATP luminescence, 48-72 h; series mostly up to 96.7 µM
Outline: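 Cytotoxicity was measured by CellTiter-Glo ATP luminescence after 48 or 72 h compound exposure at 37 °C. Mouse NIH 3T3 fibroblasts were seeded at 400 cells/well and dosed by 23 nL pin transfer.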
Potency means the concentration at half of the fitted maximal effect; tags describe the fitted curve by direction and shape.

SMILES	Potency
O=C(N[C@@H]1CCOC[C@H]1OCCO)C1CCN(Cc2ccco2)CC1	inactive
CCOc1ccc(C(=O)N2CCC[C@H]2c2nc(-c3ccccc3)no2)cc1	inconclusive: 28.2 µM [inhibitor, partial curve, poor fit]
O=C(c1cccc(Cl)c1)N1CCN(c2ccnc3ccnn23)CC1	inconclusive: 89.1 µM [inhibitor, partial curve, poor fit]
COc1cccc(-c2c(C(=O)NCCc3ccccc3)nc3sccn23)c1	inconclusive: 50.1 µM [inhibitor, partial curve, poor fit]
COc1ccccc1-c1ccc(CN2CCC(NC(=O)c3cccnc3)C2)cc1 (stereo not given)	inconclusive: 35.5 µM [inhibitor, partial curve]
Cc1c(-c2ccc(F)cc2)[nH]c2ccc(CNC(=O)c3cnn(C)c3)cc12	inconclusive: 50.1 µM [inhibitor, partial curve, poor fit]
COc1ccc(Nc2ccnc(N3CCC(NC(=O)c4ccccn4)CC3)n2)cc1	active: 39.8 µM
CCN1CCCN(S(=O)(=O)c2cc(OC)ccc2OC)CC12CCOCC2	inactive
O=C(C1CCC1)N1CCC(N(C(=O)C2CC2)C2CCOCC2)CC1	inconclusive: 56.2 µM [inhibitor, partial curve, poor fit]
O=S(=O)(c1ccc(F)cc1)N1CCCC(CN2CCCC2)CC1 (stereo not given)	inconclusive: 50.1 µM [inhibitor, partial curve, poor fit]
CC(C)c1nc2c(c(-c3ccc(Cl)cc3)n1)CCN(Cc1ccc(C(F)(F)F)cc1)CC2	inconclusive: 50.1 µM [inhibitor, single point]
COCCOc1ccc2c(n1)CCN(C(=O)C1(c3ccccc3)CC1)C2	inconclusive: 56.2 µM [inhibitor, partial curve, poor fit]
COc1ccccc1CC(=O)N1CCCc2ncc(C(=O)Nc3cccc(Cl)c3)cc21	inconclusive: 35.5 µM [inhibitor, full curve]
Cc1ccc(CN2C[C@@H]3C(=O)N(C)C(=O)[C@@H]3C2)cc1C	inactive
COc1ccccc1C(=O)N1CC(=O)N(Cc2cccs2)CC(O)C1 (stereo not given)	inactive
CCn1nccc1C(=O)N1CCC(c2nc(CCOc3cccc(C)c3)no2)C1 (stereo not given)	inconclusive: 39.8 µM [inhibitor, partial curve]
COc1ccccc1-c1cccc(CN2CCCC(C(=O)N3CCN(Cc4ccccc4)CC3)C2)c1 (stereo not given)	active: 35.5 µM
Cc1ccccc1NCc1nc2c(n1Cc1ccccc1)C(=O)N(C)CCN2	inactive
C[S+](=O)([O-])N1C[C@H](C(=O)Nc2cccc(Cl)c2)C[C@@H]1c1ccc(F)cc1	inconclusive: 89.1 µM [inhibitor, partial curve]
CCOC(=O)[C@H]1C[C@]2(CCCCNC2=O)N(C(=O)COc2ccccc2)[C@H]1c1ccccc1	inconclusive: 79.4 µM [inhibitor, single point]
O=C1NCc2ccccc2CC12CCN(Cc1ccccc1OC(F)(F)F)CC2	inconclusive: 70.8 µM [inhibitor, single point]
COc1cccc(CN(C)Cc2ccc(C)o2)c1O	inactive

SMILES	Potency
O=C(NCc1ccccc1)c1noc(-c2ccc(F)cc2)n1	inconclusive: 50.1 µM [inhibitor, partial curve, poor fit]
Cc1ccccc1CC(=O)N1C[C@@H](CO)[C@H](c2ccncc2)C1	inactive
COc1ccc(-c2cc(C(=O)NCCc3cnc[nH]3)c3c(c2)N(C)CCO3)cc1OC	inconclusive: 56.2 µM [inhibitor, partial curve, poor fit]
O=C1Cc2c(-c3ccc4ccccc4c3)n[nH]c2CN1CCc1ccncc1	inconclusive: 4.47 µM [inhibitor, full curve, poor fit]
Cc1cnccc1N1CCCN(Cc2cnc(-c3cccs3)nc2)CC1	inconclusive: 50.1 µM [inhibitor, partial curve, poor fit]
Cc1cccc(S(=O)(=O)N2CCCN(C)c3ccccc32)c1	inconclusive: 56.2 µM [inhibitor, partial curve, poor fit]
Cc1nsc(NC(=O)NCc2cccc(Cl)c2Cl)n1	inconclusive: 56.2 µM [inhibitor, partial curve, poor fit]
Cc1ccc(-c2ccc3ncn(Cc4ccccn4)c(=O)c3n2)c(C)c1	active: 25.1 µM
CC(C)Oc1cc(-c2ccc(C(C)N3CCOCC3)cc2)nc(N)n1 (stereo not given)	inconclusive: 50.1 µM [inhibitor, partial curve, poor fit]
CC(=O)c1c(C)nn(CC(=O)NCc2c(C)ncc3c2CCNC3)c1C	inactive
COCCCNC(=O)C(NC(=O)c1ccccc1C)C1CCN(C(=O)c2cccs2)CC1 (stereo not given)	inactive
CN1CCN(CCCNC(=O)C2(CCO)CCN(Cc3ccccc3)C2)CC1 (stereo not given)	inactive
CCc1nc(C)c(C(=O)NCc2cccnc2Oc2ccc(F)c(F)c2)o1	inconclusive: 50.1 µM [inhibitor, partial curve, poor fit]
COc1ncccc1-c1n[nH]c2c1CC(=O)N(Cc1ccccc1)C2	active: 25.1 µM
O=C1CC2(CCN(C(=O)C3CCCN(C(=O)c4ccc(C(F)(F)F)cc4)C3)CC2)Oc2ccccc2N1 (stereo not given)	inconclusive: 44.7 µM [inhibitor, partial curve, poor fit]
Cc1c(-c2ccccc2F)[nH]c2ccc(CNC(=O)CCC3=NNC(=O)CC3)cc12	inconclusive: 56.2 µM [inhibitor, partial curve, poor fit]
COCC(=O)NC[C@@H]1C=C(C)[C@H](Cc2nc3ccc(C)cc3[nH]2)C[C@H]1C(C)C	active: 50.1 µM
CN(C)C(=O)C1CN(C(=O)NC2CCCCC2)CC12CCOCC2 (stereo not given)	inactive
COC[C@@H]1CN(Cc2cccc(C)c2)C[C@H]1C(=O)NC1CC1	inactive
CC1=C(C(=O)N(C)C)C(c2ccc(Cl)cc2)N2C(CC(=O)NC(C)c3ccccc3)=CSC2=N1 (stereo not given)	inconclusive: 63.1 µM [inhibitor, partial curve, poor fit]
COc1ccc(CC(=O)Nc2ccc([C@@H](O)[C@H]3COCC(=O)N3Cc3ccccc3OC)cc2)cc1	inconclusive: 39.8 µM [inhibitor, partial curve, poor fit]
CCC(CC)C(=O)N1CC[C@H]2NC(=O)N(c3ccc(C(C)C)cc3)C(=O)[C@H]21	inactive

SMILES	Potency
COc1ccc(OC)c(CN2CCC3OCCN(Cc4ccccc4)C(=O)C3C2)c1 (stereo not given)	inconclusive: 63.1 µM [inhibitor, partial curve, poor fit]
CC(C)CN1C(=O)c2cccn2CC1CNC(=O)c1n[nH]c(=O)c2ccccc12 (stereo not given)	inactive
O=C(NC1CCCCC1)C1c2ccccc2C(=O)N(Cc2ccccc2)C12CCCC2 (stereo not given)	inconclusive: 44.7 µM [inhibitor, partial curve, poor fit]
CCCC(C)C(=O)N1CCCN(C)c2ccccc21 (stereo not given)	inconclusive: 50.1 µM [inhibitor, partial curve, poor fit]
Cc1ccc(OCc2nc(C3CCN(C(=O)Cc4cccc(F)c4)C3)no2)cc1 (stereo not given)	inconclusive: 44.7 µM [inhibitor, partial curve, poor fit]
Cc1cc2ncc(C(=O)NCc3ccc(F)cc3)cn2n1	inactive
Cc1nccn1CC(=O)N1C[C@@H](COCC2CC2)[C@H](c2ccccn2)C1	inactive
CN(C)c1cccc(C(=O)NC2CCCN(c3cc(-c4ccccc4)[nH]n3)C2)c1 (stereo not given)	inconclusive: 50.1 µM [inhibitor, partial curve, poor fit]
CN(C1CCc2nn(C)c(=O)n2CC1)S(=O)(=O)c1cccc2cccnc12 (stereo not given)	inactive
CC(C)c1ccc(N2C(=O)N[C@@H]3CCN(C(=O)C4CCCC4)[C@@H]3C2=O)cc1	inconclusive: 89.1 µM [inhibitor, partial curve, poor fit]
O=[S+]1([O-])NCC2(CCN(CC3CCCCC3)C2)Nc2ccccc21 (stereo not given)	inconclusive: 31.6 µM [inhibitor, partial curve, poor fit]
O=C(Cc1c[nH]c2ncc(-c3ccccc3)cc12)NCC1CCOCC1	inconclusive: 35.5 µM [inhibitor, full curve]
O=C1NC2(CCN(Cc3ccccc3C(F)(F)F)CC2)Oc2ccccc21	inconclusive: 28.2 µM [inhibitor, partial curve]
CCOC(=O)c1ccc(N2CCN(CCC3c4cccnc4C(=O)N3c3c(C)cccc3C)CC2)cc1 (stereo not given)	inconclusive: 31.6 µM [inhibitor, single point]
Cn1ccc2cc(-c3ccc4ncn(Cc5ccccn5)c(=O)c4n3)ccc21	active: 89.1 µM
CC(C)CN(CC1CN(C(=O)Nc2ccccc2)CCO1)C(=O)c1ccccc1F (stereo not given)	inactive
Cc1ccc(C(=O)N2CCN(C(=O)c3nnn4c3COC(c3ccccc3)C4)CC2)cc1C (stereo not given)	inactive
O=C(c1c[nH]c2ncccc12)N1CCC(Cc2ccccc2)CC1	inconclusive: 89.1 µM [inhibitor, partial curve, poor fit]
Cc1ccccc1CC(=O)N1CCC2(CC1)NC(=O)N(c1ccc(F)cc1)N2	inconclusive: 39.8 µM [inhibitor, partial curve, poor fit]
O=C(c1ccccc1Cl)N1CCN(C(=O)c2nnn3c2COC(c2ccccc2)C3)CC1 (stereo not given)	inactive
Cc1ccc(C(=O)N2CCC3(CC2)NC(=O)N(c2ccccc2Cl)N3)cc1C	inconclusive: 50.1 µM [inhibitor, partial curve, poor fit]
